# Laboratory results: PubChem BioAssay AID1347428 (National Center for Advancing Translational Sciences (NCATS), 2020)
# Out of some 91,000 compounds screened, about 290 (0.32%) were called active. Inconclusive results, whose numbers are uncertain, are shown with a selection of clear calls. Calls follow the shape of the dose curve; as a rule, active = well fitted inhibition curve with a large enough effect; inconclusive = small, poorly fitted or top-dose-only effect; inactive = no such curve, though single readings can be large or run the other way. Potencies beside an inconclusive call are fits to weak or partial responses and may not hold up.
# Molecular target: Single-stranded DNA cytosine deaminase (Homo sapiens) (UniProt Q9GZX7)
# Sequence of UniProt Q9GZX7 (Q9GZX7 whole entry, looked up): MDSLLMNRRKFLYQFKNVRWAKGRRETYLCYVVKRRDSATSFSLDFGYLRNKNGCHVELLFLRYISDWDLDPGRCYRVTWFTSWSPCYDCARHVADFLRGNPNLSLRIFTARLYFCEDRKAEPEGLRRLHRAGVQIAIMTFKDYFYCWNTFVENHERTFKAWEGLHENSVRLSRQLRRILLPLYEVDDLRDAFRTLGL
# Experiment: Primary qHTS assay for inhibitors of Activation Induced Cytidine Deaminase (AID): AID signal; also: nearly all actives have a fitted effect of over 25% in size
# Details: AID deamination FRET fluorescence, UDG-coupled, 4 h; series mostly up to 115 µM
# Potency is read from the fitted curve at half-maximal effect; tags tell the direction and shape of the fitted curve.
row,SMILES,Potency
1,CCC(=O)N1CCc2cc(Br)cc(S(=O)(=O)N(CC)Cc3ccccc3)c21,"inconclusive: 39.8 µM [inhibitor, partial curve, poor fit]"
2,CCCN(Cc1cc2ccc(C)cc2[nH]c1=O)S(=O)(=O)c1ccc(Cl)cc1,inactive
3,O=C(Cc1ccccc1F)N1CCC(c2nc3c(nnn3Cc3cccc(Cl)c3)c(=O)[nH]2)CC1,"inconclusive: 79.4 µM [inhibitor, partial curve]"
4,O=C(NCCCCc1ccccc1)c1nn(-c2ccccc2)nc1CO,"inconclusive: 56.2 µM [inhibitor, partial curve, poor fit]"
5,COc1ccc(-n2cc(-c3ccccc3)c3c(NCCc4ccc(OC)c(OC)c4)ncnc32)cc1,"inconclusive: 44.7 µM [inhibitor, partial curve, poor fit]"
6,N#Cc1nc(-c2ccccc2Cl)oc1N1CCCCCC1,"inconclusive: 39.8 µM [inhibitor, partial curve, poor fit]"
7,Cc1ccc(SCc2nc3scc(C)n3c2Br)cc1,inactive
8,CCCN(CCC)CCCNC(=O)c1cn(CC)c2ccc(S(=O)(=O)N3CCc4ccccc4C3)cc2c1=O,"inconclusive: 89.1 µM [inhibitor, partial curve, poor fit]"
9,COc1ccccc1Nc1nc2ccccc2nc1NS(=O)(=O)c1ccc(C)cc1,inactive
10,COc1cc2c(-c3ccccc3Cl)nc3c(c(C)nn3-c3ccccc3)c2cc1OC,"inconclusive: 20 µM [inhibitor, full curve]"
11,CCOC(=O)C1CCCN(C(=O)c2[nH]c3ccccc3c2Sc2ccc(Cl)cc2)C1 (stereo not given),"inconclusive: 31.6 µM [inhibitor, full curve]"
12,CN(CC(=O)Nc1ccccc1C(F)(F)F)C1CCc2ccccc21 (stereo not given),inactive
13,Cc1[nH]c2ccccc2c1SCCNC(=O)c1ccccc1F,"inconclusive: 89.1 µM [inhibitor, single point]"
14,COc1cc(-c2noc(-c3ccc(C(C)(C)C)cc3)n2)cc(OC)c1OC,inactive
15,O=C(CSc1nc2c(c(=O)[nH]1)CN(Cc1ccc3c(c1)OCO3)CC2)Nc1ccc(F)c(F)c1,"inconclusive: 70.8 µM [inhibitor, single point]"
16,CCCN(CCC)CCNC(=O)C1CCN(c2nc3ccc(CC)cc3s2)CC1,"inconclusive: 14.1 µM [inhibitor, full curve, poor fit]"
17,COC(=O)c1ccccc1-n1cc2c(c1-c1cccc(C)c1)c(=O)n(C)c(=O)n2C,"inconclusive: 79.4 µM [inhibitor, partial curve]"
18,COc1ccccc1-c1cc2nc(C)c(CCC(=O)Nc3cc(C)ccc3C)c(C)n2n1,inactive
19,Cc1ccc(-n2ncc3c(NCC(C)C)ncnc32)c(C)c1,inactive
20,COc1ccccc1Cc1nnc(NC(=O)c2ccc(NC(=O)C(C)C)cc2)s1,inactive
21,Cc1c(Cl)cccc1NC(=O)CN1CCC2(CC1)OCCO2,inactive
22,COc1ccc(C(=O)Oc2cccc(C)c2C)cc1I,inactive

row,SMILES,Potency
1,CCOc1ccc(-c2noc(CSc3nnc(Cc4ccccc4)n3-c3cccc(C)c3)n2)cc1,"inconclusive: 39.8 µM [inhibitor, full curve, poor fit]"
2,CCCCNC(=S)Nc1cccc(Cl)c1,inactive
3,CC(C)(C)C(=O)Cn1c(=O)n(-c2ccc(Cl)c(Cl)c2)c(=O)c2c3c(sc21)CCCC3,"inconclusive: 10 µM [inhibitor, full curve, poor fit]"
4,CCOc1ccc(OCC)c(Nc2nc3ccc(Cl)cc3n3cnnc23)c1,"inconclusive: 8.91 µM [inhibitor, full curve, poor fit]"
5,CCn1c(=O)cc(SCC(=O)N2CCN(c3ccccc3F)CC2)c2ccccc21,"inconclusive: 50.1 µM [inhibitor, partial curve, poor fit]"
6,O=C(NS(=O)(=O)Cc1ccccc1)c1cccc(F)c1,inactive
7,CCCc1cc(=O)[nH]c(Nc2nc(C)c3ccccc3n2)n1,"inconclusive: 89.1 µM [inhibitor, partial curve, poor fit]"
8,Cc1ccc2c(c1)N(C(=O)Nc1cccc3c1CCCC3)CC(C)O2 (stereo not given),"inconclusive: 50.1 µM [inhibitor, partial curve, poor fit]"
9,O=C(CSc1nnc2[nH]c(=O)cc(-c3ccccc3)n12)Nc1cc(C(F)(F)F)ccc1Cl,"inconclusive: 79.4 µM [inhibitor, partial curve, poor fit]"
10,CCn1ccc2c(OCC(=O)Nc3ccc(C(C)=O)cc3)cccc2c1=O,"inconclusive: 89.1 µM [inhibitor, single point]"
11,Cc1ccc2cc(C(=O)NCc3ccc(N4CCC(C)CC4)nc3)c(C)nc2c1,inactive
12,CCc1ccccc1NC(=O)CSc1nnc(-c2ccccc2)c(-c2ccccc2)n1,"inconclusive: 28.2 µM [inhibitor, full curve, poor fit]"
13,O=C(CN(c1ccc(Cl)c(C(F)(F)F)c1)S(=O)(=O)c1ccccc1)Nc1cccnc1,"inconclusive: 39.8 µM [inhibitor, partial curve, poor fit]"
14,COc1cc(C(=O)NC2CCOC2=O)cc(OC)c1OC (stereo not given),inactive
15,CCN1C(=O)c2ccccc2S(=O)(=O)c2ccc(C(=O)NCc3ccc(OC)cc3)cc21,"inconclusive: 50.1 µM [inhibitor, partial curve, poor fit]"
16,Cc1cccc(N2CCN(c3ncnc4c3nc3n4CCCCC3)CC2C)c1 (stereo not given),"inconclusive: 79.4 µM [inhibitor, partial curve]"
17,Cc1cccc(N(C)C(=O)Cc2c(C(=O)O)[nH]c3ccccc23)c1,inactive
18,CC(Cc1cccs1)N(Cc1ccc(Cl)cc1)C(=O)C1CC1 (stereo not given),inactive
19,CCOc1ccc(-c2cc(CCCC(=O)NCCc3cc(OC)c(OC)c(OC)c3)no2)cc1,"inconclusive: 12.6 µM [inhibitor, full curve]"
20,O=C(c1ccc2c(c1)N(Cc1ccc(Cl)cc1)C(=O)c1ccccc1S2=O)N1CCCCC1 (stereo not given),"inconclusive: 56.2 µM [inhibitor, partial curve, poor fit]"
21,Cc1cccc(Nc2nc3c(c(=O)[nH]c(=O)n3C)n2CC(=O)O)c1C,inactive
22,O=C(NCCN1CCCCC1)c1ccc(Cn2c(SCc3ccccc3)nc3cccnc32)cc1,"inconclusive: 44.7 µM [inhibitor, partial curve, poor fit]"

row,SMILES,Potency
1,Cn1c(=O)cc(SCC(=O)N2CCN(c3ccccc3F)CC2)c2ccc(Cl)cc21,"inconclusive: 39.8 µM [inhibitor, partial curve, poor fit]"
2,CCCCCCC1COC(c2ccc(Br)cc2)OC1 (stereo not given),inactive
3,COc1ccccc1NC(=O)c1cc2c(C)nn(-c3ccccc3)c2s1,"inconclusive: 22.4 µM [inhibitor, single point]"
4,COC(=O)c1ccc(CSc2nc3c([nH]c4ccccc43)c(=O)n2-c2cccc(Cl)c2)o1,"inconclusive: 56.2 µM [inhibitor, partial curve, poor fit]"
5,CC(=O)Nc1nc2n(n1)C(c1ccc(Cl)cc1)C=C(c1ccc(Cl)cc1)N2 (stereo not given),"inconclusive: 22.4 µM [inhibitor, full curve]"
6,CCOC(=O)c1cnc2ccc(C)cc2c1Nc1ccc(N(CC)CC)cc1,"inconclusive: 50.1 µM [inhibitor, partial curve, poor fit]"
7,CCOc1ccccc1Nc1sc(C(=O)c2ccccc2)c(N)c1S(=O)(=O)c1ccc(C)cc1,"inconclusive: 89.1 µM [inhibitor, partial curve, poor fit]"
8,COC(=O)c1cc(Cl)ccc1NC(=O)CSc1ncc(S(=O)(=O)c2ccc(Br)cc2)c(=O)[nH]1,"inconclusive: 79.4 µM [inhibitor, partial curve, poor fit]"
9,CC(=O)N1CCc2c(sc3c2c(=O)n(-c2cc(Cl)ccc2C)c(=O)n3Cc2ccccc2F)C1,"inconclusive: 50.1 µM [inhibitor, partial curve, poor fit]"
10,CCc1ccc(NC(=O)Cn2cc(OC)c(=O)cc2CSc2ccc(F)cc2)cc1,inactive
11,Cc1ccc(C)c(NC(=O)CSc2nnc(-c3cc4occc4n3C)n2-c2ccccc2C)c1,"inconclusive: 12.6 µM [inhibitor, full curve, poor fit]"
12,Cc1ccc(S(=O)(=O)N(CC(=O)N2CCCC2)Cc2ccc(Br)cc2)cc1,"inconclusive: 79.4 µM [inhibitor, partial curve, poor fit]"
13,CCc1ccccc1NC(=O)[C@@H](c1ccccc1)N1Cc2ccccc2C1=O,"inconclusive: 50.1 µM [inhibitor, partial curve, poor fit]"
14,Cn1c(=O)c2c(nc(NCCc3ccccc3)n2Cc2ccc(Cl)cc2)n(C)c1=O,"inconclusive: 11.2 µM [inhibitor, partial curve, poor fit]"
15,O=C(O)C(Br)Cc1ccc(Cl)cc1 (stereo not given),inactive
16,N#Cc1nc(-c2ccccc2Cl)oc1NC1CC1,inactive
17,Cn1c(OCc2cccnc2)nc2c1c(=O)n(Cc1ccc(Cl)cc1)c(=O)n2C,"inconclusive: 56.2 µM [inhibitor, partial curve, poor fit]"
18,N#C/C(=C/c1ccccc1)C(=O)OCC(=O)N1CCC(Cc2ccccc2)CC1,"inconclusive: 25.1 µM [inhibitor, partial curve, poor fit]"
19,Cc1ccc(C)c(N2CCN(S(=O)(=O)c3ccc(-c4coc(C)n4)cc3)CC2)c1,inactive
20,CC(C)c1ccc(C2C3=C(CC(C)(C)CC3=O)OC3=C2C(=O)CC(C)(C)C3)cc1,inactive
21,CCOC(=O)C1CCN(c2nc3c(S(=O)(=O)c4ccccc4)nnn3c3ccc(Cl)cc23)CC1,"inconclusive: 89.1 µM [inhibitor, single point]"
